Here are results for one molecule from patent US20160136295A1 (published 2016).

A value given as a limit tells only on which side of the number the result lay.

Assay [1] addresses Mcl-1 peptide 111-130 (S121, E125). Kind of assay: ELISA; unphosphorylated.
Assay [2] addresses Mcl-1 peptide 111-130 (P-S121, E125). Kind of assay: ELISA; phosphorylated S121.
In assay [3] the target is Cyclin E peptide 372-390 (P-T380, P-S384). Kind of assay: ELISA; phosphorylated T380/S384.
Cyclin E peptide 372-390 (P-T380, P-S384), sequence (Q969H0 2-707): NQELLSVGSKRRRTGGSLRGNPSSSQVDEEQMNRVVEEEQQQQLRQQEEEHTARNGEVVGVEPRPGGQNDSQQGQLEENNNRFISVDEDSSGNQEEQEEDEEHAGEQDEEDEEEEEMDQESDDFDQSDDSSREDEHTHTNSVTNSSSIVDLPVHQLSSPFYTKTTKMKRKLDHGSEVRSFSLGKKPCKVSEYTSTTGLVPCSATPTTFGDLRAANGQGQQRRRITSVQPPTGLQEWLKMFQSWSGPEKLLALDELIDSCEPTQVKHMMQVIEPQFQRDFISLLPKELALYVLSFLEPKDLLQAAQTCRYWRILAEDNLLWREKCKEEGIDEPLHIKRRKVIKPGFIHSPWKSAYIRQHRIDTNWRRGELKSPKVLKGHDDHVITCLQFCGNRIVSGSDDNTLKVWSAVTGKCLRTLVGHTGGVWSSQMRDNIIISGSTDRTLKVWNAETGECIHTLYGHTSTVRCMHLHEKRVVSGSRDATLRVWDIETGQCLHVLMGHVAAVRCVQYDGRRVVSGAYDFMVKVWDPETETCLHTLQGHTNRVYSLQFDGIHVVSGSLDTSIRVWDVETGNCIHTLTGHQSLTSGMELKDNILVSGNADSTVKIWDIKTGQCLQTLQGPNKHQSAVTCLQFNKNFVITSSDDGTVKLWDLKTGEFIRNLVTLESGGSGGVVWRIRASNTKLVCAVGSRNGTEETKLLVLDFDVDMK

Mcl-1 peptide 111-130 (S121, E125), sequence (Q969H0 2-707): as above
Mcl-1 peptide 111-130 (P-S121, E125), sequence (Q969H0 2-707): as above

B1: FBW7 (other)
chain: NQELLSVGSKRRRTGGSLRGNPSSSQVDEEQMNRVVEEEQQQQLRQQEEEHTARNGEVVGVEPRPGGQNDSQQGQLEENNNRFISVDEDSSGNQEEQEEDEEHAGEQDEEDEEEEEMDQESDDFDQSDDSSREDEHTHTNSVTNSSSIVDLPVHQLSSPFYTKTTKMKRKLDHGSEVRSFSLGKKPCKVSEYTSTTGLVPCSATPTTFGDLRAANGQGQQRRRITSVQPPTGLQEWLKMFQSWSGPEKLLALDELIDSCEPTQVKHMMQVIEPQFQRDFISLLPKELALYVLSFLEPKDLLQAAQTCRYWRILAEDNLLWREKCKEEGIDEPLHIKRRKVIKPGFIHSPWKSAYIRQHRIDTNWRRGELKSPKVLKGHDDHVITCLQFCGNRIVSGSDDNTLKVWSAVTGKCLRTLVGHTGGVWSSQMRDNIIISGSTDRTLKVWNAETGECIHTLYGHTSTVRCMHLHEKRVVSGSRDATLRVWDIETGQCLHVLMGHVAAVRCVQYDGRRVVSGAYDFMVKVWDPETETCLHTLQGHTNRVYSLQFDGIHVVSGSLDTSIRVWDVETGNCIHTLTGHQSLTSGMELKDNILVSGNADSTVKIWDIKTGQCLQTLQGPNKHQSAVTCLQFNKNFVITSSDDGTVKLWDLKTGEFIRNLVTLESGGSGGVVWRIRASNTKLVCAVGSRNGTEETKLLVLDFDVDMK
For B1, the Kd in assay [1] was greater than 35 µM; in assay [2], 6.6 µM; in assay [3], 370 nM.
